Measured values from ChEMBL document CHEMBL4888484, “Replenishing the malaria drug discovery pipeline: Screening and hit evaluation of the MMV Hit Generation Library 1 (HGL1) against asexual blood stage Plasmodium falciparum ,using a nano luciferase reporter read-out” (2022).
In all, about 150,000 compounds went through this assay and about 540 (0.36%) showed an effect of 50% or more. The list shows a part of the results.

Tested on: Plasmodium falciparum
Experiment: Primary screen in NF54 nanoGlo assay, in single point, at 2uM, 72h; a lower Z score goes with more inhibition
Assay type: functional, Erythrocyte
Conditions: timepoint 72 hour

| SMILES | % Inhibition [%] | Z score | % Inhibition (2 µM) [%] |
| --- | --- | --- | --- |
| CCn1cc(Cc2nc(-c3ccc(=O)n(C)c3)no2)cn1 | -19 | 2.06 |  |
| COc1ccc(CN2CC[C@H](O)CC(C)(C)C2)nn1 | -2 | 0.27 |  |
| Cc1noc([C@@H]2CN(C(=O)NC3CCCCC3)CCCN2C(=O)c2ccccc2)n1 | -6 | 1.14 |  |
| O=S(=O)(CCC1CCC1)NC1CCOC1c1ccc(Cl)cc1 (stereo unspecified) | -8 | 1.38 |  |
| CCC[N+](CC#Cc1ccccc1)(CCC)CC(=O)c1ccc(Cl)cc1 | -9 | 1.44 |  |
| CCO[C@@H](C)c1ccc(-c2ccc(O)c(-c3ccno3)c2)cc1 | -7 | 0.82 |  |
| CCN1CCC[C@@H]1CNCc1ccc2c(c1)OCCO2 |  |  | -6 |
| CC1(C)NC(=O)N(CC(=O)NC(Cc2ccccn2)[C@H]2C[C@@H](O)C2)C1=O (stereo partly specified) | -7 | 1.22 |  |
| Cc1ccc(-c2noc(-c3ccccc3S(=O)(=O)N(C)c3ccc(C)cc3)n2)cc1 | -5 | 0.58 |  |
| Cc1nnc2ccc(-c3noc([C@@H]4CCC(C)(C)O4)n3)cn12 | -1 | 0.24 |  |
| O=C(N[C@H]1CCCc2occc21)c1ccco1 | 32 | -0.61 |  |
| CCS(=O)(=O)N[C@@H](C)C(=O)N1CCCCC1 | -15 | 1.98 |  |
| O=C(NCCn1ccnc1)C(=O)Nc1cccc2nonc12 | -7 | 1.2 |  |
| Cc1ccc(-n2c(=O)c3c(cnn3C)n(Cc3ccccc3Cl)c2=O)cc1 | 8 | -0.8 |  |
| CC(C)c1cccc(CC(=O)NC[C@@H]2CCC[C@H]2O)c1 | -10 | 1.27 |  |
| O=C(CN1CCOCC1)N1C[C@@H]2CC[C@H]1CN(CCCc1ccccc1)C2 | -6 | 0.89 |  |
| CC[C@H]1C=CCN1C(=O)c1ccn2nnnc2c1 | -18 | 1.72 |  |
| C[C@H]1OCCN(C(=O)c2csc(-c3ccc(F)c(F)c3)n2)[C@@H]1C(N)=O | -1 | 0.14 |  |
| Cc1nn(CCC(N)=O)c(C)c1/C=C/C(C)(C)C | -1 | 0.27 |  |

| SMILES | % Inhibition [%] | Z score | % Inhibition (2 µM) [%] |
| --- | --- | --- | --- |
| c1ncc(CNCc2ccc3c(n2)CCCC3)s1 | -11 | 2.08 |  |
| O=C(CCC(=O)N1CCc2ccccc2C1)c1ccc2c(c1)OCCCO2 | -4 | 0.45 |  |
| C[C@H](NC(=O)C1(C)COC1)c1csnn1 | 3 | -0.33 |  |
| Cc1ccc(CNC(=O)N2CCC(C)(c3noc(C)n3)CC2)cc1 | 8 | -0.98 |  |
| CC(C)C1OCCC1CNc1ncnc2nc[nH]c12 (stereo unspecified) | -3 | 0.26 |  |
| CC1CN(C(=O)NCC(C)c2c(Cl)cccc2Cl)CC2(CCOC2)O1 (stereo unspecified) | 1 | -0.14 |  |
| c1ccn2cc(CN3CCC[C@H](Cn4cncn4)C3)nc2c1 | -13 | 1.79 |  |
| Cc1ccc(S(=O)(=O)Nc2[nH]nnc2C(=O)N2CCCC2)c(C)c1 | -13 | 1.71 |  |
| Cc1ccc(CCC(=O)N2CCC2)cc1 | -9 | 1.04 |  |
| Cn1ccnc1[C@H]1N(Cc2ccc(C(N)=O)cc2)CC1(C)C | -7 | 1.23 |  |
| Nc1cc(N2CCC3(CC2)CC(=O)N(Cc2ccc(F)c(F)c2)C3)ncn1 | 3 | -0.36 |  |
| COC(=O)c1ccc(N2CCC3CCCCC32)nn1 (stereo unspecified) | 2 | -0.33 |  |
| CCC(C)C(C)(O)CNc1ccc(S(C)(=O)=O)cc1 (stereo unspecified) | -6 | 0.76 |  |
| CC[C@H](O)CCNS(=O)(=O)N1CCC(C(C)(C)C)CC1 | -14 | 2.07 |  |
| Cc1cnc(C[C@H]2CCCN(C(=O)NC(C)(C)C)C2)n1CC1CC1 | 4 | -0.66 |  |
| CC(C)CN1CCC[C@H]1c1nc(-c2ccc(F)cn2)no1 | -9 | 1.11 |  |
| Cc1ccc(CNc2nc3c(C)cccc3cc2-c2noc(-c3ccccc3)n2)o1 | -3 | 0.35 |  |
| CCC1CCC(C(=O)NC2CCN(C(N)=O)C2)O1 (stereo unspecified) | -8 | 1.22 |  |
| COCC(=O)N(Cc1ccccc1OS(=O)(=O)c1cccc(C(F)(F)F)c1)C[C@H]1CCCO1 | -4 | 0.71 |  |

| SMILES | % Inhibition [%] | Z score | % Inhibition (2 µM) [%] |
| --- | --- | --- | --- |
| CO[C@@H](CNC(=O)c1ccccc1Cl)c1cc2ccccc2o1 | -3 | 0.51 |  |
| COc1ccc(C(=O)N2[C@H](C(=O)NCc3ccncc3)COC23CCN(C(=O)CC(C)C)CC3)cc1 | -8 | 1 |  |
| O=C(C1COCCO1)N1CCCC1c1ccc(Br)cc1 (stereo unspecified) | -16 | 1.48 |  |
| CCc1nnnn1Cc1nnc(-c2ccc(F)cc2)o1 | 5 | -0.87 |  |
| CN(C)c1ccc(-c2cnc3ncnn3c2)cn1 | -6 | 0.97 |  |
| CN1CCN(C(=O)c2coc(CN(Cc3ccc4c(c3)OCO4)Cc3ccccc3Cl)n2)CC1 | 2 | -0.25 |  |
| Cc1nc2c3ccccc3nc(N3CCC([C@]4(C)NC(=O)NC4=O)CC3)n2n1 | -8 | 1.32 |  |
| COc1ccc(-c2c(-c3ccccc3)ncn2Cc2ccon2)c(C)c1 | -11 | 1.52 |  |
| COC(=O)c1ccc(C)c(NC(=O)CCOCC(F)F)c1O | 3 | -0.25 |  |
| Fc1cccc([C@H]2C[C@H](Nc3cnccn3)C2)c1 | -3 | 0.43 |  |
| Cc1ccc([C@H](C)NCCN2CCCC2=O)o1 | -8 | 1.06 |  |
| Cc1noc(C)c1C(=O)N1CCC[C@H](Oc2ncc(Cl)cn2)C1 | -3 | 0.45 |  |
| COCc1ncsc1C(=O)NC(C)(C)c1nc(C)cs1 | 0 | -0.02 |  |
| Cc1nnc(C(C)NC2CCC[C@H]3C[C@@H]23)[nH]1 (stereo partly specified) | -14 | 1.41 |  |
| CC(C)(C#N)NS(=O)(=O)c1cc(Cl)c(N)c(Cl)c1 | -1 | 0.12 |  |
| O=C1CNC2(CCN(S(=O)(=O)c3ccc(Cl)cc3)CC2)N1Cc1cccc(C(F)(F)F)c1 | -10 | 0.93 |  |
| CN(C)Cc1cc(CN[C@H](c2ccccc2)C2(CO)CCCC2)no1 | -10 | 1 |  |
| Cc1ccccc1-n1c(=O)n(Cc2ccccc2)c(=O)c2c1ncn2CC(=O)c1ccc(Cl)cc1 | 8 | -0.72 |  |
